The campaign covered roughly 340,000 compounds. About 20 (0.006%) were called active. Inconclusive results, whose numbers are uncertain, are shown with a selection of clear calls. Calls follow the shape of the dose curve; as a rule, active = well fitted inhibition curve with a large enough effect; inconclusive = small, poorly fitted or top-dose-only effect; inactive = no such curve, though single readings can be large or run the other way. Potencies beside an inconclusive call are fits to weak or partial responses and may not hold up.
Molecular target: Sphingomyelin phosphodiesterase (Homo sapiens) (UniProt P17405)
Sequence of UniProt P17405 (P17405 whole entry, looked up): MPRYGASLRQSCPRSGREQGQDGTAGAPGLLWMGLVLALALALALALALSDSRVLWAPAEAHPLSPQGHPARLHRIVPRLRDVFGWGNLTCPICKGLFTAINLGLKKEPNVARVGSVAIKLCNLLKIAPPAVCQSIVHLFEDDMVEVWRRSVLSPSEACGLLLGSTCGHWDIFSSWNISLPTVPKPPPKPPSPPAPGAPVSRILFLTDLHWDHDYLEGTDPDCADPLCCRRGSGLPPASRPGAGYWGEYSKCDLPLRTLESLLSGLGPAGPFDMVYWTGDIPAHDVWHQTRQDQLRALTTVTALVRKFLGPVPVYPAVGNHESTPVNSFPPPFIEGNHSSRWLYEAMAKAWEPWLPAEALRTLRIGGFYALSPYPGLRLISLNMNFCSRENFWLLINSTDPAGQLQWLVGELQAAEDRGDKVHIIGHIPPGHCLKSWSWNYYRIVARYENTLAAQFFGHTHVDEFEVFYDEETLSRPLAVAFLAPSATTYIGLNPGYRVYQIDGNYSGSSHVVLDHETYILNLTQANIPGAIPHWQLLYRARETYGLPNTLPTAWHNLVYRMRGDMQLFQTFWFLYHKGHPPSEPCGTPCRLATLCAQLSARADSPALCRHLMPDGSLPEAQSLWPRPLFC
Experiment: Inhibitors of Secretory Acid Sphingomyelinase (S-ASM): qHTS
Conditions: placental ASM, HMU-PC fluorogenic substrate (series up to 57.5 µM), 60 min; activity change, negative = inhibition: at the top concentration
How it was run: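 qHTS format. ASM enzyme prepared from human placenta hydrolyses the fluorogenic substrate HMU-PC0 (9 uM final) over 60 min at 37 °C after a 10 min compound preincubation.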
Potency is read from the fitted curve at half-maximal effect; tags tell the direction and shape of the fitted curve.

Compound | Potency | activity change, negative = inhibition
CCN(CC)C(=O)Cn1c(C)c(/C=C/c2cc[n+](C)cc2)c2ccccc21 | inconclusive: 89.1 µM [inhibitor, partial curve, poor fit] | 
CCCCCCC1CC(CC(=O)Nc2ccc([N+](=O)[O-])cc2)C(=O)O1 (stereo not given) | inconclusive: 63.1 µM [inhibitor, partial curve, poor fit] | 
COc1ccc(NC(=O)C2C(c3ccccc3)C2(Cl)Cl)cc1 (stereo not given) |  | inactive: -2.09%
Cc1ccc(S(=O)(=O)N/N=C\c2cn(CC(N)=O)c3ccccc23)cc1C | inconclusive: 70.8 µM [inhibitor, single point] | 
N#Cc1c(NC(=O)CCN2C(=O)c3ccccc3C2=O)oc(-c2ccccc2)c1-c1ccccc1 | inconclusive: 1120 µM [inhibitor, partial curve, poor fit] | 
C#Cc1ccc([C@@H]2C=C(C(=O)Nc3ccccc3)O[C@H](OCC)[C@H]2CCCO)cc1 | inconclusive: 316 µM [inhibitor, partial curve, poor fit] | 
CC(C)(C)OC(=O)N1Cc2ccccc2C[C@H]1C(=O)NCC(=O)NCC1CCCO1 (stereo not given in full) |  | inactive: 7.99%
COCCn1c(COc2ccc(C)cc2)nc2ccccc21 |  | inactive: 0.182%
O=C1NC(=Nc2ccccc2Cl)S/C1=C\c1cc([N+](=O)[O-])ccc1O | inconclusive: 398 µM [inhibitor, partial curve, poor fit] | 
Cc1cc(=O)[nH]c(N/N=C/C2=C(N3CCOCC3)C(=C\c3ccc(Cl)cc3)/CC2)n1 | inconclusive: 112 µM [inhibitor, partial curve, poor fit] | 
CC1(C)OC(C(O)(c2ccccc2)c2ccccc2)[C@@H](C(O)(c2ccccc2)c2ccccc2)O1 (stereo not given in full) | inconclusive: 178 µM [inhibitor, partial curve, poor fit] | 
Cc1nccn1CC(O)COc1ccc([N+](=O)[O-])cc1 (stereo not given) |  | inactive: -0.464%
N#CC1=C(N)OC2=C(C(=O)CCC2)C1c1ccoc1 (stereo not given) |  | inactive: -0.339%
COc1ccc(-c2nc(/C=C3\C(C)=Nc4ccccc43)c(O)o2)cc1 | inconclusive: 89.1 µM [inhibitor, single point] | 
Cc1ccc(NC(=O)c2cc(N(C)C)ccc2[P+](=O)O)cc1 | inconclusive: 63.1 µM [inhibitor, partial curve, poor fit] | 
COc1ccc(Br)c(/C=N/NC(=O)COc2ccc(-c3ccccc3)cc2)c1 | inconclusive: 501 µM [inhibitor, partial curve, poor fit] | 
CCN1/C(=C\c2ccc3ccccc3[n+]2CC)Sc2cc(C)ccc21 | inconclusive: 501 µM [inhibitor, partial curve, poor fit] | 
COC(=O)[C@@]12CCCCN1[C@H](c1ccc(-c3ccc(F)cc3)cc1)[C@H]1C(=O)N(C)C(=O)[C@H]12 | inconclusive: 112 µM [inhibitor, partial curve] | 
CCN(c1ccccc1)S(=O)(=O)c1ccc(C(=O)NCC(=O)Nc2ccc(F)c(F)c2F)cc1 |  | inactive: -0.354%
COc1ccc(/C=C2/SC(=O)N(NS(=O)(=O)c3ccccc3)C2=S)cc1OC | inconclusive: 70.8 µM [inhibitor, partial curve, poor fit] | 
N/C(=N\OC(=O)CCn1cccc(C(F)(F)F)c1=O)c1ccc(Cl)cc1 |  | inactive: -1.61%
OC1(c2cccc(C(F)(F)F)c2)CCN(Cc2nnnn2Cc2ccccc2)CC1 | inconclusive: 794 µM [inhibitor, partial curve, poor fit] | 

Compound | Potency | activity change, negative = inhibition
COc1cccc(/C=C2\SC(=S)N(NC(=O)c3ccncc3)C2=O)c1 | inconclusive: 112 µM [inhibitor, partial curve, poor fit] | 
CCCCCCCCOC(=O)CCc1c(C)[nH]c(=S)[nH]c1=O |  | inactive: -7.06%
COc1ccc(/C=C2/C(=O)N(CC3CCCO3)C(=S)N2C)c(OC)c1 (stereo not given) | inconclusive: 224 µM [inhibitor, partial curve, poor fit] | 
COc1ccccc1N(C)S(=O)(=O)c1ccc(C(=O)Nc2ccc3nc(C)sc3c2)cc1 |  | inactive: -14.3%
CCOc1ccc(S(=O)(=O)N2CCCC(C(=O)NCc3cccnc3)C2)cc1C (stereo not given) |  | inactive: -3.09%
CCCCCCCCCCCCCCCC[n+]1cccc(C(=O)N(CC)CC)c1 | inconclusive: 50.1 µM [inhibitor, partial curve] | 
Cc1ccc(N=c2c([N+](=O)[O-])nn(-c3ccccc3)n2O)c(C)c1 | inconclusive: 447 µM [inhibitor, partial curve, poor fit] | 
Cc1ccc(Nc2nc(N)c([N+](=O)[O-])c(NCCO)n2)cc1 | inconclusive: 178 µM [inhibitor, partial curve, poor fit] | 
CC(=O)Nc1ccc(S(=O)(=O)Nc2c(C)nn(-c3ccccc3)c2C)cc1 |  | inactive: -3.33%
COc1cc(OC)c(NC(=O)c2ccc3c(SCC(=O)O)c4c(nc3c2)CCCC4)cc1Cl |  | inactive: -5.77%
CCOC(=O)Cc1c(Sc2ccccc2)c2cc(C)ccc2n1C | inconclusive: 398 µM [inhibitor, partial curve, poor fit] | 
COc1ccc(-n2nc3cc(N)c(Br)cc3n2)cc1 |  | inactive: 37.1%
COc1ccc(-n2ncc3c(=O)n(CC(=O)Nc4ccc(S(=O)(=O)N5CCOCC5)cc4)cnc32)cc1 | inconclusive: 79.4 µM [inhibitor, single point] | 
CCOc1ccc(NC(=O)c2ccccc2OCC(=O)c2ccccc2)cc1 | inconclusive: 282 µM [inhibitor, partial curve, poor fit] | 
Cc1ccc(-c2nn3c(C)nnc3s2)cc1NC(=O)c1ccc(OC(C)C)cc1 | inconclusive: 1260 µM [inhibitor, partial curve, poor fit] | 
Cc1cn(C(=O)c2ccccc2)c(=S)n1-c1ccc(Br)cc1 |  | inactive: -17.2%
Cc1cc(C(=O)CSc2nnnn2C)c(C)n1-c1cccc(F)c1 |  | inactive: -1.58%
COc1ccc(NC(=O)CCS(=O)(=O)c2ccccc2Cl)cc1S(=O)(=O)Nc1ccc(Cl)cc1 | inconclusive: 447 µM [inhibitor, partial curve, poor fit] | 
COc1cc(/C=N/NC(=O)CCc2ccccc2)ccc1O |  | inactive: 33.8%
C=C(C)CSc1nc2sc3c(c2c(=O)n1-c1ccc(OC)cc1)CCN(C)C3 |  | inactive: -2.8%
CCCN(CCC)Cc1c(C(=O)N/N=C/c2ccc(C)o2)nnn1-c1nonc1N | inconclusive: 89.1 µM [inhibitor, partial curve, poor fit] | 
COc1cc(-c2cc(C(=O)Nc3ccc(N4CCOCC4)cc3)c3ccccc3n2)cc(OC)c1OC |  | inactive: -13.9%

Compound | Potency | activity change, negative = inhibition
CC(C)C[C@H]1CNC(=S)N1CC1CCCN1C[C@H](CC(C)C)N1C[C@H](Cc2ccc(O)cc2)N(CC2CCCCCC2)C1=S (stereo not given in full) | inconclusive: 70.8 µM [inhibitor, partial curve, poor fit] | 
COc1cc(-c2nnc(SCC(=O)c3ccc(C)cc3)o2)cc(OC)c1OC | inconclusive: 562 µM [inhibitor, partial curve, poor fit] | 
C/C=C/c1ccc(OCCOc2ccc(C=O)cc2)c(OC)c1 | inconclusive: 224 µM [inhibitor, partial curve, poor fit] | 
O=C(CSc1nc2ccccc2c(=O)n1CC1CCCCC1)N1CCOCC1 |  | inactive: 0.748%
COc1ccc(C(OCC(O)CNC(C)c2ccccc2)c2ccc(OC)cc2)cc1 (stereo not given) |  | inactive: -3.11%
CCOC(=O)Cn1nnc2c(sc3nc4c(c(-c5ccc(Cl)cc5)c32)CCC4)c1=O | inconclusive: 126 µM [inhibitor, partial curve, poor fit] | 
COC(=O)c1ccccc1NC(=O)N1CCCC1 |  | inactive: -2.98%
COc1ccc(CN(Cc2cc3ccc(C)cc3[nH]c2=O)Cc2nnnn2C2CCCC2)cc1 | inconclusive: 200 µM [inhibitor, partial curve, poor fit] | 
CSc1nc2c([nH]1)c(=S)n(C)c(=O)n2C |  | inactive: -2.45%
COc1ccc(-c2cc([N+](=O)[O-])ccc2OCC(=O)N(C)CC(=O)Nc2ccc(C)cc2)cc1 | inconclusive: 282 µM [inhibitor, partial curve, poor fit] | 
CCOc1ccc(NC(=S)N=Nc2c(O)[nH]c3ccccc23)cc1 | inconclusive: 89.1 µM [inhibitor, partial curve, poor fit] | 
O=c1cc(-c2ccsc2)oc2ccc(-c3ccc4cc[nH]c4c3)cc12 | inconclusive: 224 µM [inhibitor, partial curve, poor fit] | 
O=[N+]([O-])c1ccc(O)c(-c2nc(-c3ccccc3)c(-c3cccs3)[nH]2)c1 | inconclusive: 200 µM [inhibitor, partial curve, poor fit] | 
COc1cc2sc(-c3ccccc3OC)c(-c3ccc(OCCN4CCOCC4)cc3)c2cc1OC | inconclusive: 112 µM [inhibitor, partial curve, poor fit] | 
C=CCn1c(SCC(=O)NC2CCCC2)nnc1-c1ccncc1 |  | inactive: 5.83%
COC(=O)c1cc2c(-c3ccccc3)cc3ccccn3c-2c1C(=O)OC | inconclusive: 100 µM [inhibitor, partial curve, poor fit] | 
CCCCCn1c(CN2CCN(c3cccc(Cl)c3)CC2)nc2c1c(=O)n(C)c(=O)n2C | inconclusive: 89.1 µM [inhibitor, partial curve] | 
CCc1ccc(CN2CCC(n3nccc3NC(=O)C3CCCC3)CC2)cc1 |  | inactive: -2.97%
O=C(Nc1ccc(N2CCN(C(=O)c3ccco3)CC2)c(Cl)c1)c1cccs1 | inconclusive: 251 µM [inhibitor, partial curve, poor fit] | 
COc1ccc(NC(=O)C2C(c3ccccc3)C2(Cl)Cl)c(OC)c1 (stereo not given) |  | inactive: -5.68%
Nc1ncnc2c1ncn2C1OC(COP(=O)(O)O)C(O)C1O (stereo not given) | inconclusive: 100 µM [inhibitor, partial curve, poor fit] | 

From PubChem BioAssay AID504937 (National Center for Advancing Translational Sciences (NCATS), 2011)
